The results in this text go back to patent US20240360219A1 (FBD BIOLOGICS, published 2024).

For one test, the target named is T1, human TGFβ3 (human, UniProt P10600 301-412).
T1 construct: also called hTGFβ3
T1 sequence (looked up): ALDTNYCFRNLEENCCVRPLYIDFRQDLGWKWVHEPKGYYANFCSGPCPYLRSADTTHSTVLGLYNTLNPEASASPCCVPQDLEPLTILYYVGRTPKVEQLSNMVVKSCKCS
Description: ELISA, plate coated with 1 µg/ml human TGFβ3, HRP secondary antibody, OD 450 nm.

The target in test [1] is T2, human TGFβ2 (human, UniProt P61812 303-414).
T2 construct: also called hTGFβ2
T2 sequence (looked up): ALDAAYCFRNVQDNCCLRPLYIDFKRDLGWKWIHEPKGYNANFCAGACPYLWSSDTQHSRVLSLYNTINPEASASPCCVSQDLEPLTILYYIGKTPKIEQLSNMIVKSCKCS
Nature of the test: ELISA, plate coated with 1 µg/ml human TGFβ2, HRP secondary antibody, OD 450 nm; the printed EC50 lies above the highest concentration shown (500 nM). On the technique in general: In an ELISA, binding on a coated surface is turned into a signal by an enzyme label.

Test [2] concerns the target T2, human TGFβ2. Description: ELISA, plate coated with 1 µg/ml human TGFβ2, HRP secondary antibody, OD 450 nm.
For the next test, the target named is T3, human PD-L1 (human, UniProt Q9NZQ7).
T3 construct: whole, on cells; also called PDL1 tf CHO-S; PD-L1 tf OE19
Description: flow cytometry on a mixture of CFSE-labelled OE19 and violet-labelled PD-L1 tf OE19 cells, share of each cell type among PE-positive cells.

Sequence of human PD-L1 (Q9NZQ7 19-290): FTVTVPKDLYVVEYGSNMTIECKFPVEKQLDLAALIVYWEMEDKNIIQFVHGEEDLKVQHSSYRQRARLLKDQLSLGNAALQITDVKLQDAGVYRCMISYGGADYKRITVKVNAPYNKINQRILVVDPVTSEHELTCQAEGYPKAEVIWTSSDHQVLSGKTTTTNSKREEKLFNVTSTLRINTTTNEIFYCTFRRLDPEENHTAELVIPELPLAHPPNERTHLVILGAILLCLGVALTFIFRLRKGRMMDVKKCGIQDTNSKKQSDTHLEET

B1: IgG4-TGFβ trap (Fc fusion)
chain: [human IgG4 Fc with S228P (EU numbers) not shown]AGGGGSGGGGSGGGGSGGGGSGIPPHVQKSVNNDMIVTDNNGAVKFPQLCKFCDVRFSTCDNQKSCMSNCSITSICEKPQEVCVAVWRKNDENITLETVCHDPKLPYHDFILEDAASPKCIMKEKKKPGETFFMCSCSSDECNDNIIFSEEYNTSNPD
notes: Control protein for the HCB301 proteins
In the case of B1, the EC50 in the test with human TGFβ3 amounted to 0.63 nM; with human TGFβ2 [1], 990 nM.

B2: SIRPα_G4 (Fc fusion)
chain: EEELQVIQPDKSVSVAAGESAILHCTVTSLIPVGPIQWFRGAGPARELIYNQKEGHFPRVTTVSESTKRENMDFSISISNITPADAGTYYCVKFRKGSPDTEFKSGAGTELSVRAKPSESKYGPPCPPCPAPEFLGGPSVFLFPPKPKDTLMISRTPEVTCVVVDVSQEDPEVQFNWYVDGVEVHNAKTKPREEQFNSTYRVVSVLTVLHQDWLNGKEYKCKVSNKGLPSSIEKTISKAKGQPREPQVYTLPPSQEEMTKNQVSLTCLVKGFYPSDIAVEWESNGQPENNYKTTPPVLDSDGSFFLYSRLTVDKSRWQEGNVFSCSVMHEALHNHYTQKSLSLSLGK
notes: Control protein; also called hSIRPα-G4Fc-wt (Trillium); TTI-622
On to B2, for which the binding result is “no binding (tested: 500 nM)” in the test with human TGFβ2 [2], “no binding (tested: about 50 nM (last point on the axis))” with human TGFβ3 and “no binding (tested: 32 pM)” in the test with human PD-L1.

What is called EC50 is the midpoint of the concentration-response curve.
